# The list shows a part of the results. Single values of this set are uncertain. Values with irradiation are relative to irradiated vehicle.
# Columns and labels:
# A549-Dual [1] = experiment: NF-kB reporter (SEAP) activity, viability-corrected, relative to vehicle (fold change vs vehicle); higher = more activation of STING-IRF / NF-kB immune response reporter; conditions: 10 µM
# A549-Dual [2] = experiment: ISRE reporter (Lucia luciferase) activity, viability-corrected, relative to vehicle (fold change vs vehicle); higher = more activation of STING-IRF / NF-kB immune response reporter; conditions: 10 µM
# 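For NF-kB reporter (SEAP) activity, viability-corrected, relative to vehicle in this document: viability correction based on the alamar blue assay, with concentrations leaving 10% survival or less dropped.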
SMILES,NF-kB reporter (A549-Dual [1]; irradiation: 8 Gy/4 fr),NF-kB reporter (A549-Dual [1]; irradiation: none),ISRE reporter (A549-Dual [2]; irradiation: 8 Gy/4 fr),ISRE reporter (A549-Dual [2]; irradiation: none)
CCc1c(Cl)c(O)c(Cl)c(O)c1C(=O)OC1C(C)OC(OC/C2=C\C=C\CC(O)/C(C)=C\C(CC)C(OC3OC(C)(C)C(OC(=O)C(C)C)C(O)C3O)/C(C)=C/C(C)=C/CC(C(C)O)OC2=O)C(OC)C1O (stereo in doubt) [Fidaxomicin],1.57,2.54,1.11,5.98
Cn1cc[nH]c1=S [Methimazole],0.688,0.799,0.549,0.702
O=C1c2c(O)cccc2C(C2OC(CO)C(O)C(O)C2O)c2cc(CO)cc(O)c21 (configuration not stated) [Aloin],1.18,0.811,1.07,0.752
CC(O)C(O)C1CNc2nc(N)[nH]c(=O)c2N1.Cl.Cl (configuration not stated) [Sapropterin Dihydrochloride],0.751,0.864,0.876,0.746
CC(=O)OC1(C(C)=O)CCC2C3CC(C)C4=CC(=O)CCC4(C)C3CCC21C (configuration not stated) [Medroxyprogesterone acetate],0.776,1.04,0.188,0.292
CC1c2cccc(O)c2C(=O)C2=C(O)C3(O)C(=O)C(C(N)=O)=C(O)C(N(C)C)C3C(O)C21 (configuration not stated) [Doxycycline],0.535,0.819,0.448,0.536
C/C(=C\C(=O)OCCCCCCCCC(=O)O)CC1OCC(CC2OC2C(C)C(C)O)C(O)C1O (configuration not stated) [Mupirocin],0.825,0.856,0.869,0.811
CCCCCCCCCCCCCCCCOc1nc2ccc(C)cc2c(=O)o1 [Cetilistat],1.13,0.645,1.12,0.572
CC(C)OC(=O)CCC/C=C\CC1C(O)CC(O)C1/C=C/C(F)(F)COc1ccccc1 (configuration not stated) [Tafluprost],0.993,0.711,0.86,0.468
C[S+](CCC(N)C(=O)[O-])CC1OC(n2cnc3c(N)ncnc32)C(O)C1O.Cc1ccc(S(=O)(=O)O)cc1.O=S(=O)(O)O.O=S(=O)(O)O (configuration not stated) [Ademetionine disulfate tosylate],0.97,0.784,0.261,0.362
Clc1ccc(CSC(Cn2ccnc2)c2ccc(Cl)cc2Cl)cc1.O=[N+]([O-])O (configuration not stated) [Sulconazole Nitrate],0.523,0.913,0.322,0.542
CC(/C=C1\SC(=S)N(CC(=O)O)C1=O)=C\c1ccccc1 [Epalrestat],0.804,1.09,0.87,1
O.OCC(O)C(O)C(OC1OC(CO)C(O)C(O)C1O)C(O)CO (configuration not stated) [Lactitol monohydrate],1.08,0.52,1.05,0.458
"CCC(=O)Oc1ccc2c(c1)CCC1C2CCC2(C)C(OC(=O)CC)CCC12 (stereo not drawn) [17-Beta-Estradiol-3,17-Dipropionate]",0.462,0.591,0.457,0.528
CCCCCCCCCCC(=O)O [Undecanoic acid],0.771,0.726,0.759,0.67
CC12CCC(=O)C=C1CCC1C2C(=O)CC2(C)C1CCC2(O)C(=O)CO (configuration not stated) [Cortisone],0.748,0.553,0.73,0.505
Cl.Fc1ccc(C2CCNCC2COc2ccc3c(c2)OCO3)cc1 (configuration not stated) [Paroxetine HCl],0.685,0.992,0.794,1.05
CC12CC3CC(C)(C1)CC(N)(C3)C2.Cl [Memantine HCl],0.638,0.788,0.897,0.763
C[N+](C)(C)CCO.[Cl-] [Choline Chloride],0.921,0.95,0.853,0.625
CN(C)C(CCOc1cccc2ccccc12)c1ccccc1.Cl (configuration not stated) [Dapoxetine HCl],0.781,0.765,0.927,1.01
CC1(C(=O)O)CCC2(C)CCC3(C)C(=CC(=O)C4C5(C)CCC(OC6OC(C(=O)O)C(O)C(O)C6OC6OC(C(=O)O)C(O)C(O)C6O)C(C)(C)C5CCC43C)C2C1.N (configuration not stated) [Ammonium Glycyrrhizate],0.887,0.832,0.84,0.67
CC(=O)c1c(O)c(C)c(O)c2c1OC1=CC(=O)C(C(C)=O)C(=O)C12C (configuration not stated) [Usnic acid],0.653,0.796,0.57,0.46

SMILES,NF-kB reporter (A549-Dual [1]; irradiation: 8 Gy/4 fr),NF-kB reporter (A549-Dual [1]; irradiation: none),ISRE reporter (A549-Dual [2]; irradiation: 8 Gy/4 fr),ISRE reporter (A549-Dual [2]; irradiation: none)
"O=C(OC1Cc2c(O)cc(O)cc2OC1c1ccc(O)c(O)c1)c1cc(O)c(O)c(O)c1 (single isomer, unassigned; (-)) [(-)-Epicatechin gallate]",0.684,0.572,0.645,0.446
CCCCS(=O)(=O)NC(Cc1ccc(OCCCCC2CCNCC2)cc1)C(=O)O.Cl.O (configuration not stated) [Tirofiban Hydrochloride],0.757,1.25,0.623,0.613
CN/C(=C/[N+](=O)[O-])NCCSCc1csc(CN(C)C)n1 [Nizatidine],0.817,0.937,0.837,0.718
"CC(O)CO (configuration not stated) [1,2-Propanediol]",0.794,0.775,0.954,0.616
C=CC1(C)CC(OC(=O)CSC2CC3CCC(C2)N3C)C2(C)C(C)CCC3(CCC(=O)C32)C(C)C1O (configuration not stated) [Retapamulin],0.572,0.909,0.644,1.17
CCC(C)C1NC(=O)C(CCCNC(=N)N)NC(=O)C(CC(=O)O)NC(=O)C(CCSC)NC(=O)C(CCCNC(=N)N)NC(=O)CNC(=O)CNC(=O)C(Cc2ccccc2)NC(=O)C(NC(=O)C(CO)NC(=O)C(CO)NNC(CCCNC(=N)N)C(=O)NC(CCCNC(=N)N)C(=O)C(=O)C(CC(C)C)NNC(C=O)CO)CSSCC(C(=O)NC(CC(N)=O)C(=O)NC(CO)C(=O)NC(Cc2ccccc2)C(=O)C(=O)C(CCCNC(=N)N)NC(=O)C(Cc2ccc(O)cc2)NO)NC(=O)CNC(=O)C(CC(C)C)NC(=O)CNC(=O)C(CO)NC(=O)C(CCC(N)=O)NC(=O)C(C)NC(=O)CNC1=O (configuration not stated) [Carperitide Acetate],1.23,0.689,1.28,0.719
COc1ccc(Cl)cc1C(=O)NCCc1ccc(S(=O)(=O)NC(=O)NC2CCCCC2)cc1 [Glyburide (Glibenclamide)],0.542,0.788,0.482,0.84
COc1cc2c(cc1OC)C(=O)C(CC1CCN(Cc3ccccc3)CC1)C2.Cl (configuration not stated) [Donepezil HCl],0.772,0.555,0.989,0.649
C=CCc1ccccc1OCC(O)CNC(C)C.Cl (configuration not stated) [Alprenolol hydrochloride],0.88,1.03,0.718,0.72
Clc1ccc2c(c1)CCc1cccnc1C2=C1CCNCC1 [Desloratadine],0.536,0.93,0.657,1.12
C#CC1(OC(C)=O)CCC2C3CCC4=CC(OC(C)=O)CCC4C3CCC21C (configuration not stated) [Ethynodiol diacetate],0.604,2.05,0.401,1.35
CCOc1cc(N)c(Cl)cc1C(=O)NCC1CN(Cc2ccc(F)cc2)CCO1.O=C(O)CC(O)(CC(=O)O)C(=O)O (configuration not stated) [Mosapride Citrate],0.756,0.856,0.715,0.781
CC(O)C(CO)NC(=O)C1CSSCC(NC(=O)C(N)Cc2ccccc2)C(=O)NC(Cc2ccccc2)C(=O)NC(Cc2c[nH]c3ccccc23)C(=O)NC(CCCCN)C(=O)NC(C(C)O)C(=O)N1 (configuration not stated) [Octreotide Acetate],1.12,0.655,1.13,0.71
COCCCN1CCC(NC(=O)c2cc(Cl)c(N)c3c2OCC3)CC1.O=C(O)CCC(=O)O [Prucalopride Succinate],0.735,1.07,0.691,0.754
CC(CCC(=O)O)C1CCC2C3CCC4CC(O)CCC4(C)C3CCC12C (configuration not stated) [Lithocholic acid],0.7,0.438,0.597,0.394
C=C1/C(=C\C=C2/CCC[C@]3(C)[C@@H]([C@H](C)/C=C/[C@H](C)C(C)C)CC[C@@H]23)C[C@@H](O)C[C@@H]1O [Doxercalciferol],0.749,0.704,0.456,0.644
Cc1ccccc1-c1cc(N2CCN(C)CC2)ncc1N(C)C(=O)C(C)(C)c1cc(C(F)(F)F)cc(C(F)(F)F)c1 [Netupitant],1.12,0.713,1.24,0.734
OCc1ccccc1O [2-Hydroxybenzyl alcohol],0.943,1.02,0.848,0.647
Cc1ccsc1C(=CCCN1CCCC(C(=O)O)C1)c1sccc1C (configuration not stated) [Tiagabine],0.773,1.14,0.794,1.25
CCCN1CC(C)C(O)C(C)(O)C(CC)OC(=O)C(C)C(OC2CC(C)(OC)C(O)C(C)O2)C(C)C(OC2OC(C)CC(N(C)C)C2O)C(C)(O)CC1C (configuration not stated) [Gamithromycin],0.481,0.594,0.73,0.829
Oc1ccc(OCc2ccccc2)cc1 [Monobenzone],2.06,1.98,0.844,2.16

# — the supplement of paper PMC9174493
